In PubChem BioAssay AID624417 (National Center for Advancing Translational Sciences (NCATS), 2012):
Values joined by “and” are separate entries in the source; they are usually repeats but may differ in a detail not shown here. Identical values can stand only once. In all, about 410,000 compounds went through this assay and about 6,400 (1.6%) were called active. Inconclusive means that the source gave no clear call. Such entries were picked first, then a sample of the others. Calls come from the whole dose curve; as a rule, active = well fitted inhibition curve with a large enough effect; inconclusive = small, poorly fitted or top-dose-only effect; inactive = no such curve, though single readings can be large or run the other way. Potencies of inconclusive entries are doubtful fits and often do not repeat.
Note: nearly all actives have a fitted effect of over 55% in size.
Potency is the fitted concentration of half-maximal effect; tags give direction and shape of the fitted curve.

These compounds were tested against Glucagon-like peptide 1 receptor (Homo sapiens) (UniProt P43220) (assay: qHTS of GLP-1 Receptor Inverse Agonists (Inhibition Mode)). Conditions: HEK293 GLP-1R CRE-luciferase, luminescence, 24 h, GLP-1R form is constitutively active; series mostly up to 38.3 µM.
Sequence of UniProt P43220 (P43220 whole entry, looked up): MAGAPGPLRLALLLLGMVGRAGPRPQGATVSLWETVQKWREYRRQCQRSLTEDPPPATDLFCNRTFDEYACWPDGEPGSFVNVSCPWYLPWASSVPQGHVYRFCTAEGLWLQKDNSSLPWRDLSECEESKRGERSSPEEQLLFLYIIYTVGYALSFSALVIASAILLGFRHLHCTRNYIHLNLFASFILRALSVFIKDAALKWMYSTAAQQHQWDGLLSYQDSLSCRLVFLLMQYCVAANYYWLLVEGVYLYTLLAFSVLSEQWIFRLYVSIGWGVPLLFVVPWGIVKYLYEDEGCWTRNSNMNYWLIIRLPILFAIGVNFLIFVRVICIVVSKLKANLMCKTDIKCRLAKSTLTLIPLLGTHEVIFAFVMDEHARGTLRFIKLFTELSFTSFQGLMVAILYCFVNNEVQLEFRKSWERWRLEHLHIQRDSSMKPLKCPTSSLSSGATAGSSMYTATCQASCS
Procedure, shortened: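 HEK293 cells stably co-expressing constitutively active GLP-1R and a cAMP-responsive luciferase reporter were seeded in DMEM with 10% Nu serum, given compounds after 12 h, and incubated 24 h at 37 deg C. Luminescence was then read.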
With `O=C(O)CN1C2=NCCCN2c2ccccc21` the Potency was “inactive”.
With `Cc1ccc(NC(=O)COc2ccc(N(C)C(=O)C(C)(C)C)cc2)cc1S(=O)(=O)N1CCCCC1` the Potency was inconclusive: 20 µM [inhibitor, partial curve, poor fit].
With `CCOc1ccc(N(C(=O)c2snc(C(N)=O)c2N)C(C)C(=O)NC2CCCCC2)cc1` (stereo not given) the Potency was inconclusive: 28.2 µM [inhibitor, single point].
`CC(C)(C)c1ccc(OCCn2ccccc2=O)cc1` was tested, and the Potency was inconclusive: 28.2 µM [inhibitor, single point].
For `O=C(CN1CCN(c2ccccc2)CC1)Nc1ccc(Oc2ccccc2)cc1`, the Potency was inconclusive: 8.91 µM [inhibitor, partial curve, poor fit].
With `O=C(Cc1ccccc1F)Nc1cc(Cl)ccc1N1CCCC1` the Potency was inconclusive: 10 µM [inhibitor, partial curve, poor fit].
`CN(CCc1cnn(C)c1)Cc1cn[nH]c1-c1ccc(-c2ccccc2)cc1` was tested, and the Potency was inconclusive: 10 µM [inhibitor, partial curve, poor fit].
For `COc1ccc(NC(=O)C(c2ccc(C)cc2)N(C)C(=O)Cc2cccs2)cc1` (stereo not given), the Potency was inconclusive: 31.6 µM [inhibitor, single point] and inconclusive: 20 µM [inhibitor, single point].
In the case of `O=C(O)c1ccc(-n2c(-c3cc(-c4ccco4)[nH]n3)n[nH]c2=S)cc1`, the Potency is reported as “inactive”.
With `COc1ccc(N(CC(=O)N2CCN(Cc3ccc4c(c3)OCO4)CC2)S(C)(=O)=O)cc1OC` the Potency was “inactive”.
With `CCC(c1nc2ccccc2[nH]1)n1c(-c2cnccn2)nc2ccccc21` (stereo not given) the Potency was inconclusive: 2.24 µM [inhibitor, full curve, poor fit].
For `O=C(COc1ccccc1Cl)N1CCN(c2ccc(F)cc2)CC1`, the Potency was inconclusive: 28.2 µM [inhibitor, single point].
`CC(C)Cn1c(N)c(C(=O)COC(=O)c2c(F)cccc2F)c(=O)n(C)c1=O` was tested, and the Potency was inconclusive: 12.6 µM [inhibitor, single point].
In the case of `OC(CNCCC1C=Nc2ccccc21)Cn1c2ccc(Cl)cc2c2cc(Cl)ccc21` (stereo not given), the Potency is reported as inconclusive: 5.62 µM [inhibitor, partial curve, poor fit].
In the case of `O=C(/C=C/c1ccccc1Cl)c1ccccc(=O)c1O`, the Potency is reported as inconclusive: 28.2 µM [inhibitor, single point].
`CCN(CC)C(=O)[C@H]1C[C@H](CC(=O)NC/C=C(\C)CCC=C(C)C)C(=O)N2CCc3c([nH]c4cc(CCC(=O)N(C)C)ccc34)[C@]12C` was tested, and the Potency was inconclusive: 12.6 µM [inhibitor, partial curve, poor fit].
In the case of `CC(=O)Oc1c(-c2ccc(Br)o2)oc2ccccc2c1=O`, the Potency is reported as active: 5.62 µM.
`Cc1ccc(/C=C/C(=O)c2nc3ccccc3[nH]2)cc1` was tested, and the Potency was inconclusive: 28.2 µM [inhibitor, single point].
With `O=C(c1ccccc1)c1nc[nH]c1C(=O)Nc1ccccn1` the Potency was “inactive”.
`CC(C)c1nnc(NC(=O)CC(C)c2ccccc2)s1` (stereo not given) was tested, and the Potency was inconclusive: 3.98 µM [inhibitor, partial curve, poor fit].
With `C[C@@H](C(=O)Nc1ccc2ccccc2c1)[C@H]1C[C@]1(C)[C@H](NC(=O)OCc1ccccc1)c1ccccc1` the Potency was inconclusive: 7.94 µM [inhibitor, partial curve, poor fit].
For `CC(C)c1cccc(-c2csc(C(C)(O)c3ccc(F)c(F)c3)n2)c1` (stereo not given), the Potency was inconclusive: 11.2 µM [inhibitor, partial curve, poor fit].
In the case of `Cc1cccc(CN2CCC(C(=O)Nc3ccc(Oc4cccnc4)cc3)CC2)c1`, the Potency is reported as inconclusive: 28.2 µM [inhibitor, single point].
In the case of `Cc1nc(-c2ccc(Cl)cc2)sc1CCNC(=O)c1ccc(C(F)(F)F)cc1`, the Potency is reported as “inactive”.
`Cc1cccc(NC(=S)N=Nc2c(O)n(CN3CCOCC3)c3ccccc23)c1C` was tested, and the Potency was inconclusive: 1.41 µM [inhibitor, full curve, poor fit].
`Cc1ccccc1OCc1nc(-c2ccccc2)no1` was tested, and the Potency was inconclusive: 10 µM [inhibitor, partial curve].
`O=[N+]([O-])c1cccc(S(=O)(=O)NCC2CC3CCC2C3)c1` (stereo not given) was tested, and the Potency was inconclusive: 10 µM [inhibitor, single point].
`O=C(NCCC1=CCCCC1)c1c(O)nc2ccccn2c1=O` was tested, and the Potency was inconclusive: 7.94 µM [inhibitor, partial curve, poor fit].
In the case of `COC(=O)c1[nH]c2ccccc2c1NC(=O)CN1CCN(C/C=C/c2ccccc2)CC1`, the Potency is reported as inconclusive: 10 µM [inhibitor, partial curve].
`COc1ccc(CC(N)c2csc(NC(=O)Nc3ccccc3C(C)(C)C)n2)cc1` (stereo not given) was tested, and the Potency was inconclusive: 31.6 µM [inhibitor, single point].
`O=C(Nc1ccccc1F)c1ccc(Br)o1` was tested, and the Potency was “inactive”.
In the case of `CCCC(C)C1c2c(c(C)c(C)oc2=O)Oc2c(C)c(C)oc(=O)c21` (stereo not given), the Potency is reported as inconclusive: 1.41 µM [inhibitor, partial curve, poor fit].
With `O=S(=O)(c1ccccc1)N1CCCC1c1cccs1` (stereo not given) the Potency was inconclusive: 7.08 µM [inhibitor, partial curve, poor fit].
`O=C(C[n+]1cc(-c2ccccc2)n2c1CCCCC2)c1ccc(Cl)cc1` was tested, and the Potency was inconclusive: 10 µM [inhibitor, partial curve, poor fit].
In the case of `Cn1c(=O)c2c(nc(NCc3ccccc3)n2CCCc2ccccc2)n(C)c1=O`, the Potency is reported as inconclusive: 15.8 µM [inhibitor, partial curve, poor fit].
For `CN1CCN(c2ccc(CNS(=O)(=O)Cc3ccc(Cl)cc3)cc2)CC1`, the Potency was inconclusive: 2 µM [inhibitor, full curve, poor fit].
In the case of `COc1ccc(OC)c(C2N=C(N)Nc3nc4ccccc4n32)c1` (stereo not given), the Potency is reported as “inactive”.
`CCCN(C(=O)Cc1c(C(=O)O)n(C)c2ccccc12)c1cccc(C)c1` was tested, and the Potency was inconclusive: 12.6 µM [inhibitor, single point].
In the case of `Nn1cnnc1N/N=C/c1ccc(Cl)cc1Cl`, the Potency is reported as inconclusive: 15.8 µM [inhibitor, single point].
With `O=C(C[C@H]1C(=O)N(CCc2ccccc2)C[C@@H]1Cc1ccccc1)Nc1ccc(Br)cc1` the Potency was active: 7.94 µM.
For `O=C(c1ccccc1)c1ccc2cc(O)ccc2c1`, the Potency was inconclusive: 6.31 µM [inhibitor, partial curve, poor fit].
With `O=C(CCS(=O)(=O)c1ccc(F)cc1)Nc1nnc(-c2cccs2)o1` the Potency was “inactive”.
In the case of `Cc1csc(N/N=C/c2ccccn2)n1`, the Potency is reported as inconclusive: 22.4 µM [inhibitor, single point].
In the case of `O=C(CN1CCN(Cc2ccccc2)CC1)NC(c1ccccc1)c1ccccc1`, the Potency is reported as active: 10 µM.
`Cc1ccc2c(c1)C1(SC(C)C(=O)N1c1ccc(Cl)cc1)C(=O)N2` (stereo not given) was tested, and the Potency was inconclusive: 4.47 µM [inhibitor, partial curve].
With `CC(C)Cc1cc(C(=O)N2CCCC(CO)(Cc3ccc(F)cc3)C2)no1` (stereo not given) the Potency was inconclusive: 15.8 µM [inhibitor, partial curve, poor fit].
With `C[C@H](O)[C@@H]1C(=O)N2CCc3c([nH]c4ccccc34)[C@@H]2C[C@@H]1N(C)C(=O)c1cc(Cl)cc(Cl)c1` the Potency was inconclusive: 15.8 µM [inhibitor, single point].
For `CCCCCCN1C[C@@H](n2cc(-c3ccc(F)cc3)nn2)[C@H](O)C[C@@H]1c1ccc(OC)cc1`, the Potency was active: 3.16 µM.
`COc1ccccc1Cc1c(-c2cccc(Cl)c2)nc2ccc(C)cn12` was tested, and the Potency was inconclusive: 28.2 µM [inhibitor, single point].
For `COc1ccc(OC)c(NC(=O)CSCc2cnn(-c3ccccc3)c2-n2cccc2)c1`, the Potency was active: 11.2 µM.
For `COc1cccc(OCCSc2nc3ccccc3n2CC(=O)N2CCCCC2)c1`, the Potency was “inactive”.
With `CCc1[nH]nc2c1C(Cc1ccccc1)C(C#N)=C(N)O2` (stereo not given) the Potency was “inactive”.
For `Fc1ccc(-c2n[nH]c(=S)n2CC2CCCO2)cc1` (stereo not given), the Potency was “inactive”.
With `Cc1ccccc1Cn1c(=O)n(CCc2ccccc2)c(=O)c2c(C)c(C)sc21` the Potency was “inactive”.
`Cc1cc(C(=O)COC(=O)c2ccc(O)cc2)c(C)n1CC1COc2ccccc2O1` (stereo not given) was tested, and the Potency was inconclusive: 14.1 µM [inhibitor, partial curve, poor fit].
`CCOC(=O)c1c(CN2CCN(C)CC2)oc2ccc(O)cc12` was tested, and the Potency was “inactive”.
For `Cc1ccc(S(=O)(=O)N2CCCCC2)cc1NC(=O)c1cncc(Br)c1`, the Potency was “inactive”.
With `Nc1cc(=O)[nH]c(SCc2ccc(Cl)cc2)n1` the Potency was “inactive”.
`CCc1ccc(S(=O)(=O)N2CCN(c3ccccc3OC)CC2)cc1` was tested, and the Potency was inconclusive: 3.55 µM [inhibitor, single point].
For `Cc1ccc(S(=O)(=O)/N=C(/Nc2ccc([N+](=O)[O-])cc2[N+](=O)[O-])c2ccccc2)cc1`, the Potency was inconclusive: 10 µM [inhibitor, partial curve, poor fit].
`CCCCn1c(=O)[nH]c(=O)c2c1nc(-c1ccccc1F)n2Cc1ccccc1OC` was tested, and the Potency was inconclusive: 12.6 µM [inhibitor, single point].
With `Cc1ccc(NC(=O)CN2C(=O)COc3ccc(S(=O)(=O)N4CCCCC4)cc32)cc1Cl` the Potency was inconclusive: 28.2 µM [inhibitor, single point].
With `CCOc1cc(CNCCSc2nnnn2C)ccc1OCc1ccc(Cl)cc1Cl` the Potency was inconclusive: 7.94 µM [inhibitor, single point].
With `COc1ccc2c(C)cc(SCC(=O)c3ccc4c(c3)OCO4)nc2c1` the Potency was inconclusive: 28.2 µM [inhibitor, single point].
With `CC(NC(=O)c1ccco1)C(=O)N1CCN(c2cccc(C(F)(F)F)c2)CC1` (stereo not given) the Potency was “inactive”.
